For twelve molecules, cytotoxicity call results are on record in the antibiotic and cytotoxicity screens of Wong et al. (2023).

Molecules are shown by their SMILES. The list shows a part of the results.

For this assay, the system named is HSkMC (human skeletal muscle cells). The experiment in a line: cytotoxicity call (relative viability < 0.9). As to conditions: 10 µM.
On to `Cc1noc(C)c1S(=O)(=O)NC(C)C`, for which the cytotoxicity call is “inactive”.

On to `C[C@H]1CN([C@@H](C)CO)C(=O)Cc2cc(NS(=O)(=O)c3ccccc3)ccc2O[C@@H]1CN(C)S(=O)(=O)c1cn(C)cn1`, for which the cytotoxicity call was “inactive”.

For the molecule `Cc1ccc(S(=O)(=O)Nc2ccc3c(c2)C(=O)N([C@H](C)CO)C[C@H](C)[C@@H](CN(C)S(C)(=O)=O)OCCCC[C@@H](C)O3)cc1`, the cytotoxicity call was “inactive”.

As to `CN(C)C(=O)[C@H]1[C@H](CO)[C@H]2Cn3c(ccc(C4=CCCC4)c3=O)[C@@H]1N2S(=O)(=O)c1cn(C)cn1`, the cytotoxicity call was “inactive”.

As to `C[C@@H]1CN([C@@H](C)CO)C(=O)c2cccc(NC(=O)c3cnccn3)c2O[C@@H]1CN(C)C(=O)Nc1ccccc1`, the cytotoxicity call was “inactive”.

In the case of `C[C@@H]1CCCCO[C@H](CN(C)Cc2ccccc2)[C@@H](C)CN([C@@H](C)CO)C(=O)c2cc(NS(=O)(=O)c3cccs3)ccc2O1`, the cytotoxicity call was “inactive”.

Take `CCCNC(=O)N1C[C@]2(CCN(CC2)S(=O)(=O)c2ccccc2)c2c(n(c3cc(ccc23)OC)C)[C@H]1CO`: the cytotoxicity call is “inactive”.

For the molecule `C[C@@H]1CN([C@H](C)CO)C(=O)c2cccc(NS(=O)(=O)c3ccc(Cl)cc3)c2O[C@H]1CN(C)Cc1ccc(Cl)c(Cl)c1`, the cytotoxicity call is “inactive”.

As for `C[C@@H]1CCCCO[C@@H](CN(C)Cc2ccccc2)[C@@H](C)CN([C@H](C)CO)C(=O)c2cc(NC(=O)c3ccccc3)ccc2O1`, the cytotoxicity call was “inactive”.

For `Nc1ccc(-c2ccco2)cc1`, the cytotoxicity call was “inactive”.

Take `C[C@@H]1CN([C@@H](C)CO)C(=O)c2cc(C#Cc3ccccc3F)cnc2O[C@H]1CN(C)C(=O)Cc1ccncc1`: the cytotoxicity call is “inactive”.

As to `C[C@@H]1CN([C@@H](C)CO)S(=O)(=O)c2ccc(C#Cc3cccnc3)cc2O[C@@H]1CN(C)C(=O)Nc1ccc2c(c1)OCO2`, the cytotoxicity call is “inactive”.
